Data from the supplement of paper PMC6660600, “Odorant Inhibition in Mosquito Olfaction” (iScience, 2019).
Some of the results follow. Many values rest on one well or one pass, so single values are uncertain.

test system: CquiOR32-CquiOrco; experiment: current response class (signed ordinal: positive = inward/excitatory, negative = outward/inhibitory) (ordinal score (-3..3)); higher = stronger inward (excitatory) current; settings: 1 mM; holding potential (mV): -80
Protocol: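 Xenopus oocytes co-expressing Culex quinquefasciatus CquiOR32 with CquiOrco were challenged by two-electrode voltage clamp (holding -80 mV) with a panel of about 200 odorants at 1 mM source dose (2 s stimulus). The response was scored qualitatively: + to +++ for weak to strong inward currents, x to xxx for weak to strong outward (inhibitory, reverse) currents, +/- and x/- for very weak currents (S/N 2-5), and - for no response. Scale: negative = stronger reverse/inhibitory current.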

Current response class, active:
CC(C=O)=Cc1ccccc1 [α-methylcinnamaldehyde] 1
COC(C)=O [methyl acetate] 1
C=CC(C)(O)CCC=C(C)C (racemic) [(±)-linalool] -1
Cc1ncsc1C [4,5-dimethylthiazole] 3
OC1CCCCC1 [cyclohexanol] 1
OCCc1ccccc1 [2-phenylethanol] 1
CCCCN(CCC(=O)OCC)C(C)=O -1
CC1CCC(C(C)(C)O)C(O)C1 (stereo not given) [p-menthane-3,8-diol] -3
CCC(C)NC(=O)c1ccccc1C (stereo not given) [N-(sec-butyl)-2-methylbenzamide] -1
CC1(C)C(=O)[C@@]2(C)CC[C@@H]1C2 [D-fenchone] -3
C=CCc1ccc(O)c(OC)c1 [eugenol] -1
CCCCCC(C)=O [2-heptanone] 0.5
CC12CCC(CC1=O)C2(C)C (racemic) [(±)-camphor] -3

Current response class, inactive:
CCCCCC/C=C/C=O [(E)-2-nonenal] 0
CCCC(O)CC(=O)OCC (stereo not given) [ethyl 3-hydroxyhexanoate] 0
CCCCCCCCCCCCCC(=O)OC [methyl myristate] 0
CCCCCCCCCC(C)=O [2-undecanone] 0
CCCC(=O)OCC [ethyl butanoate] 0
CCc1ccc(O)cc1 [4-ethylphenol] 0
OCc1ccccc1 [benzyl alcohol] 0
CCCCCCCO [1-heptanol] 0
CCCCCCCOC(C)=O [heptyl acetate] 0
CCC=O [propanal] 0
CC(C)CCO [isoamyl alcohol] 0
CC(C)CCO [3-methyl-1-butanol] 0
CC=O [acetaldehyde] 0
CCCCC(C)=O [2-hexanone] 0
CCC(C)O (stereo not given) [2-butanol] 0
CC(=O)/C=C/C1C(C)=CCCC1(C)C (stereo not drawn) [α-ionone] 0
CCCCCCCCCC=O [decanal] 0
CCOC(C)=O [ethyl acetate] 0
CCCC(=O)OC [methyl butyrate] 0
CC(C)CC=O [isovaleraldehyde] 0
CCCCCC/C=C/CO [(E)-2-nonen-1-ol] 0
Cc1cccc(O)c1C [2,3-dimethylphenol] 0
CC(=O)OCCC(C)C [isopentyl acetate] 0
CCC(C)COC(=O)C(C)CC (stereo not given) [2-methylbutyl 2-methylbutanoate] 0
Oc1ccccc1 [phenol] 0
CCCC=O [butanal] 0
c1ccc2[nH]ccc2c1 [indole] 0
